In all, about 33,000 sequences were measured (“E-score (-0.5 to 0.5)”: median about -0.012, highest 2% from about 0.27 on). Some of the results follow.
target: T1, Vhr1 (UniProt P40522); test: PBM E-score (8-mer binding enrichment) (E-score (-0.5 to 0.5)); higher = stronger / more preferred TF binding; most listed sequences are background and not binding sites; conditions: protein concentration: 200 nM; construct: GST-full length
T1 sequence: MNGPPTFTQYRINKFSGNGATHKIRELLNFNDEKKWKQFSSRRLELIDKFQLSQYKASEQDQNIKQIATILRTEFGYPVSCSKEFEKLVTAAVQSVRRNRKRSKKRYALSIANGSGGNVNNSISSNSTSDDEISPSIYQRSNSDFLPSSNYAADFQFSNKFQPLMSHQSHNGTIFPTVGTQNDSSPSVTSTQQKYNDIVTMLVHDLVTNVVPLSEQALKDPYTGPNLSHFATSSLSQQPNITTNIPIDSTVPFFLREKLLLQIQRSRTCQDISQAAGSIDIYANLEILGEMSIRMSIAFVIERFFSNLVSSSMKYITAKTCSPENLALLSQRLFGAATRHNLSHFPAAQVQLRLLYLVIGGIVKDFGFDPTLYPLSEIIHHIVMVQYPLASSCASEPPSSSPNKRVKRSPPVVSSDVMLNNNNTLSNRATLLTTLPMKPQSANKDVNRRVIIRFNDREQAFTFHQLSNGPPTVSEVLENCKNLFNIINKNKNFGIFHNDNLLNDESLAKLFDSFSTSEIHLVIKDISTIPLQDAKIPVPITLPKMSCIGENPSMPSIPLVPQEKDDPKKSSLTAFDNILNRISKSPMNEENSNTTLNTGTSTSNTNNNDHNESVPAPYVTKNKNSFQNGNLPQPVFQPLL
Procedure, shortened: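 Detection of bound protein used fluorescent anti-GST, with scans normalised by masliner. The proteins were GST-tagged yeast transcription factors applied at about 100-200 nM to universal all-10-mer Agilent arrays made double-stranded by primer extension. Each ungapped eight-base word, pooled with its reverse complement, was scored with an E-score from the Universal PBM Analysis Suite.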

| Sequence | PBM E-score |
| --- | --- |
| ATAACCCA | 0.0893 |
| TCCGACGA | -0.0551 |
| CAATTCCC | -0.0287 |
| CATTGCAC | 0.174 |
| TGCGTCAA | -0.227 |
| ACATTAAT | 0.168 |
| CTTCAATC | -0.0571 |
| CGGAGGGC | -0.173 |
| CGCTGGAC | -0.0176 |
| AGTTTCAC | -0.0487 |
| ATAATCGA | 0.0552 |
| CAGTTGGG | 0.173 |
| AGAGTGGG | 0.0768 |
| ACTTCCGC | 0.0208 |
| CAGTTCCC | 0.0685 |
| ACGGCTGC | 0.0519 |
| CTCAGGAG | 0.193 |
| CAGACTAG | 0.0661 |
| CCATCGAA | 0.119 |
| CACCAGTG | 0.0505 |
| ACATGACT | 0.446 |
| CGCAGTCA | 0.363 |
| ACCTGTGG | -0.13 |
| CTATTGCA | -0.0654 |
| ACGCATAC | 0.0004 |

| Sequence | PBM E-score |
| --- | --- |
| ACCGTCGC | 0.0711 |
| GATTCAAA | -0.0717 |
| CATCCCAC | 0.114 |
| GATAGTGC | 0.0119 |
| ACTAATGG | 0.0879 |
| CGGCGCCA | -0.116 |
| ACGCCCCG | 0.00684 |
| CCTGACAC | 0.188 |
| CAGAGCCG | -0.0339 |
| ATACCTAG | 0.129 |
| AAGAGGAG | 0.0429 |
| AGTGTGTA | 0.238 |
| GAGTTATC | 0.118 |
| CACCTTTA | -0.174 |
| GTAATTGA | 0.0141 |
| GATTTACC | -0.0729 |
| ATGGCAAT | 0.0411 |
| CTAGCTAC | -0.0816 |
| GACCGGGA | 0.186 |
| AATGTCCA | -0.157 |
| CAAATTCA | -0.0318 |
| AACAAGCT | -0.00349 |
| GTTTGGGA | 0.0203 |
| CCACCCGC | 0.142 |
| ACACCACT | 0.21 |

| Sequence | PBM E-score |
| --- | --- |
| AGCACTGG | -0.0591 |
| CCACTGAG | -0.00167 |
| GATCCAAA | 0.00716 |
| TACTACTA | 0.208 |
| AGCTCACC | 0.104 |
| AGTCCGAG | 0.156 |
| ACAACCAT | 0.19 |
| ACACTCGT | -0.0745 |
| CTCATCTA | -0.0343 |
| TACCGGGA | 0.126 |
| AGTACAGA | 0.137 |
| AACATTAA | -0.0426 |
| CGAATCAG | 0.344 |
| ACCGCATC | 0.126 |
| CGCGATTC | 0.278 |
| AGATCACC | -0.0605 |
| AACGCGTC | -0.137 |
| AAAACATC | -0.0435 |
| CAACAGAG | -0.0195 |
| GCGAAATA | -0.228 |
| CCATACCC | 0.113 |
| CGGAGACA | 0.139 |
| CTGTGGGC | -4e-05 |
| GGCACCGA | -0.0544 |
| CTGGGAGC | -0.205 |

| Sequence | PBM E-score |
| --- | --- |
| AGGAGGGC | -0.11 |
| CCATTCCA | 0.164 |
| ACCCTTAT | -0.115 |
| CCCCCGGA | 0.0245 |
| AATCGCGC | 0.231 |
| AAAATTCG | 0.0473 |
| CGCGGTGA | 0.21 |
| GAAGCAAC | -0.086 |
| AAACGAAA | -0.057 |
| AAGCTCAG | -0.0615 |
| TAAGCTCA | -0.0939 |
| CGTTTGAG | 0.00422 |
| CCACACGA | -0.00498 |
| GAACTTCC | -0.269 |
| AGATATCA | 0.0108 |
| TGGTATAA | -0.0214 |
| CATAACGC | -0.0468 |
| CATAGCGC | 0.105 |
| GATATACC | 0.165 |
| AAACTTCC | -0.0962 |
| AACGCGTT | -0.0116 |
| GTTCCCCA | -0.117 |
| TAGGAACA | -0.169 |
| GATGTGAA | 0.0877 |
| GCCGCGGC | 0.237 |

| Sequence | PBM E-score |
| --- | --- |
| AACGCACA | 0.13 |
| ATCATGGA | 0.22 |
| CGAGAAAG | -0.012 |
| AAGTTTGC | 0.133 |
| CGAGCAGA | 0.0217 |
| AACTCGTA | 0.0622 |
| CGCTCTGC | 0.0608 |
| ATTTCCTC | -0.12 |
| CATAGCGG | -0.085 |
| CCTCCCCG | 0.155 |
| TAACCGCA | 0.148 |
| CGATCAAA | 0.0148 |
| AGGAATTA | -0.0656 |
| ATGCTTGG | -0.068 |
| CTACGAGA | -0.0207 |
| ATCGATCC | 0.0602 |
| CATGCGCG | 0.102 |
| AAGAAGTC | -0.00524 |
| ATTTTTCA | -0.137 |
| AGAAGAGA | -0.255 |
| GCGACCGA | 0.0781 |
| AACTTCCC | -0.179 |
| GGGTTAAA | -0.086 |
| AATGGAGC | 0.0103 |
| GGTCCGAC | 0.0207 |

| Sequence | PBM E-score |
| --- | --- |
| CAGTTTCG | -0.00977 |
| CTTCTGTA | -0.102 |
| AATACAAG | 0.26 |
| CAGCTCCA | -0.104 |
| CCGCCCCC | -0.17 |
| CTCGAAAC | -0.109 |
| CAAACAGG | 0.0517 |
| CAGCGGGC | 0.0388 |
| CTGTGGGA | 0.00015 |
| GCGATAGC | -0.0722 |
| TAGAGAAA | -0.313 |
| CTAATTTC | -0.0654 |
| CAAATACA | 0.161 |
| GCTTCATA | 0.0559 |
| AAGCAAAA | -0.165 |
| CACACGGG | 0.192 |
| GGGACTCA | 0.261 |
| TCGCACGA | 0.0168 |
| CAGATTCG | 0.069 |
| CCAGACCC | 0.009 |
| ACCAGATG | 0.101 |
| CCGAGGGA | -0.0926 |
| CGGGCCCC | 0.0114 |
| GGTGACAC | 0.218 |
| AGGCGCCA | 0.0323 |

| Sequence | PBM E-score |
| --- | --- |
| AAAAACTT | -0.215 |
| CCTGCTCC | 0.0238 |
| AATCATGA | 0.331 |
| TCAAGACA | -0.0364 |
| AGTTTGGC | -0.0973 |
| AATAAAAG | -0.243 |
| CCAAGTCA | 0.133 |
| ATAGTGGG | 0.063 |
| ACCACGCG | 0.0984 |
| GTCAACCA | -0.0131 |
| ATGACGAC | 0.229 |
| ACTAAACA | 0.0858 |
| CGTCATTA | -0.122 |
| AACCAACA | 0.063 |
| ATCATCCC | 0.149 |
| CGTTTATC | 0.0605 |
| CGCGTGGA | -0.127 |
| CGTGGCAG | 0.057 |
| GTTAGGGA | -0.229 |
| ACTCACGG | 0.352 |
| ACCGTGGA | 0.0577 |
| CAGTAAGA | -0.0112 |
| CCGACGAA | 0.0572 |
| GCCTAGGC | -0.247 |
| ACGTCTAG | -0.0685 |

| Sequence | PBM E-score |
| --- | --- |
| CCTGGCTC | 0.197 |
| AGTGACCG | -0.117 |
| AGGTGAGC | 0.208 |
| ACCCCCTG | -0.151 |
| GCCTGACC | -0.113 |
| AGTGGTGC | -0.0378 |
| AAGACTTC | -0.228 |
| ACTCCTGG | 0.0389 |
| CCGATACG | -0.153 |
| CCGTCAGG | -0.155 |
| GTAATGGA | 0.0976 |
| GACCATGC | 0.0186 |
| CAACGTCA | -0.0719 |
| TCCAAAAA | -0.245 |
| GAGACCGA | -0.0354 |
| AGCCTGCC | -0.195 |
| GGCGCCGA | -0.00941 |
| AACGAACA | 0.032 |
| ATACAAAC | 0.234 |
| GTACTTAA | -0.123 |
| CACAGGTC | -0.0511 |
| ATAGGCCG | -0.229 |
| CACGTTCG | -0.085 |
| CTAGGAGA | -0.132 |
| AACCGCGT | 0.0481 |

| Sequence | PBM E-score |
| --- | --- |
| TGACTCCA | 0.48 |
| TTAATAAA | 0.202 |
| GAATTGGA | -0.0708 |
| CGTTGCCC | -0.166 |
| CCCCTAAG | -0.0465 |
| CACGTAGC | -0.11 |
| CATGAACC | 0.23 |
| AACTAGAA | -0.115 |
| GTCAGGAC | 0.104 |
| CCTAACCC | -0.163 |
| ACGATGCT | 0.0556 |
| GATGTCCC | -0.044 |
| ATTTTCGA | -0.111 |
| GCCTTAGC | -0.197 |
| GTGGTCTA | -0.0306 |
| AATAGAAC | -0.155 |
| CAGTTGAC | 0.156 |
| CCGCGCCA | 0.00882 |
| GCGTTGAA | -0.0799 |

From the supplement of paper PMC3334620
